Data: the supplement of paper PMC12632987
Whole data set: some 4,500 sequences, median “median log2 fold change of GCK-ALFA target abundance (FLAG IP / Myc IP barcode read proportion)” near 0.078, cut for the lowest 2% near -0.6. The list shows a part of the results.

B1: GBRAP_160_4555 (protein)
chain: SKEQEELIKSVEEAKKFVLEVVEEESNEEAKTVAIGEFGSVLMEAFLSGKFSDELEDKLGELLDKLEEELEKAKNGSKEEVKKIITKYFDEAIELIKKSK
B2: GBRAP_184_5306 (protein)
chain: MVRHVTIEAKTAEEAIKQIEAAAAEAKAAGAKLELTLLLDNVDVEGFKKIAELLKELKEEGIIKSALVEITNDLSEEEIDEYIKIADEAGVTLVIALPEE
B3: GBRAP_80_6760 (protein)
chain: ARARLEAALAELIALDPEVGTRLRAVLERALAAGVDPELAARTVEALVELAKLDPEKARELAERLIAELEEALAAGDVAGAEAALVDAESDALVEVEELE
B4: GBRAP_35_5503 (protein)
chain: SSAATEVEMLVATIEDLVLAVPDLDPETAASIARQLIRSARELAADLADDAEGLERLRDALEALLAAIRKHYGDDPLAQEVAAELEALIAELDARLAAAR
B5: GBRAP_14_3881 (protein)
chain: KEEIVKTVEEKMEEMIENIKKLLPDLPEEVWEKIEELTEEIIEKVKEEDLNLEELDELLDEMVEEIDEHAAGLDPETRAALVALLGVETNEILLKVDEVE
B6: GBRAP_35_5585 (protein)
chain: EIEEIILDTVKDWAEATIEAIKEEDIETVVKLLKAFIRTVRLAIKDLKNNLEALKKIAEEIKKVIEALKKYRSDNKEIQELVKELEELLKEAEELAKKNE
B7: GBRAP_160_4381 (protein)
chain: SEELKELKERVEELKEEFEEEAEDLETEEVRTLAIGVLSEIAADVWSNEAVSEETKDKIMEIIDEAIEKIRENEDAEPEEIVEIVTEALEKIIELIKEEE
B8: GBRAP_52_6369 (protein)
chain: KLEEALELLEKALEAMLAGKEEEAEEILRELVENYDEETILAAAKKLAEKLKSGTLEEAEAFLELAIMLADIMEEEGRSEAVGDEIEAIAAKTYMEILKK
B9: GBRAP_160_3966 (protein)
chain: SEEVEKLIEEIEEIFEEAKELIEGESFEERLTIVRVAVGEVLLLADESPLVSDETEEKIAEVGDELVATLEANPDFSLEEIKALIDEAEEKIKEIILEEH
B10: GBRAP_11_2781 (protein)
chain: KKEKLEEIIKKAKEAIELAKKLLKEGLDNEELIKKLKKALEELKKLVEENLDEGTKKLVEIAEELFKEFLEDEENKEEYLKNLIAALRVLEGQALLELEE
B11: GBRAP_125_3150 (protein)
chain: KKEALLELAEALARLAGLSEEEIAELREIAEASDPAQTVVAILLAAGWEEAAELAEKVIDKLTEEELEELIALARALLDASPEEARAALLALLEELLAKQ
B12: GBRAP_184_5103 (protein)
chain: KTLVVEVEADTKEEALAKLFKAIDEAAAQGADLIVLLKLNNVSEEEIVEVVREIGKRAKEAGIPRLTIGIENELSEETVDKLIKVADELGINLVLAIPDE
B13: GBRAP_160_4640 (protein)
chain: PESLKELKEIVDEGTAIVLEEIDAGDLANAIAALRVMVGEVVREAMEDPRFSDEDVDKLDKLGDAHVARLEAARGASKEELKAIVEEAAADLKALLESFY
B14: GBRAP_128_3160 (protein)
chain: AVEEARKKTEEIMEKIKNSSLEEAKKLVEELVDMLGTLNEEEVEAVREVVIEKLPELSVEKLEILADVLRKNRDKLPPYAQEEAADIEVEALNEAEEKEE
B15: GBRAP_83_6928 (protein)
chain: KEKIVVAANDDNIDEAFEAAIDLQKNEGYEVDVEVIITKEGFPKLKKAFEKMAKAGWNGTLDILAVGATKEEVEKLKAELEAIAKKYGVNVKINVTQVEP
B16: GBRAP_160_4407 (protein)
chain: SEALKETAERILEAVKDELDLLLELGKIDPKAAAGLLEGTVLLEMFEDDSLTEEQEEKLEELAERLAERLEKLLKEEGEMTEEIRKELLEEAKRGLEEII
B17: GBRAP_160_4237 (protein)
chain: SAELEALRKDITDELELLLDVLLESPKSNWRAYARAFAGDIVQLVIEDPNASDETEEKVDELAEEMVEDLVAAKDASPEEIAALLAEYAERIVATVAKEL
B18: GBRAP_160_4046 (protein)
chain: SEKVKAAREESRALFAEAAAMMEDLSPEEAAVLMEVTVGEAIMELVERGIEITPEIDAVVDEARARRKAFLADPTTTREEVIAALRELEAALAAALDAME
B19: GBRAP_139_3756 (protein)
chain: SATAAAAARLAALVADPATTLEQIVAAVEEAAKTLDEEGIKAVLAALAAALVSQPVERIEEIEDAVLEILKKEGKSEDVIDFAEGEFDGAAALSAAREEE

The binders below were run against GABARAP, O95166 (assay: median log2 fold change of GCK-ALFA target abundance (FLAG IP / Myc IP barcode read proportion) (log2 ratio); each designed protein is fused to an ALFA-tag nanobody in HEK293 cells to bring the named protein to FLAG-tagged glucokinase (GCK); Myc marks an untargeted standard; higher = target protein stabilised (more abundant)). Details: target protein: 3xFLAG-MCP-GCK-ALFA reporter; HEK293 landing pad (RPLP).
Procedure, shortened: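 The readout is target abundance, the per-binder median log2 ratio of FLAG to Myc barcode read proportions. It came from HEK293 landing-pad cells carrying a recombined ALFA-nanobody-fused binder library, induced with 2 μg mL^−1 doxycycline and transfected with a plasmid for a FLAG-tagged target and a Myc-tagged standard. After 48 h, lysates were immunoprecipitated with anti-FLAG and anti-Myc, and circular RNA barcodes were reverse transcribed, amplified and sequenced. Each barcode needed a proportion of at least 10^−7 in both replicates and each binder at least 3 barcodes per replicate, a pseudocount of 10^−6 was added, and the replicates were pooled.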

GABARAP, O95166, sequence (O95166 whole entry, the tested form may be a part): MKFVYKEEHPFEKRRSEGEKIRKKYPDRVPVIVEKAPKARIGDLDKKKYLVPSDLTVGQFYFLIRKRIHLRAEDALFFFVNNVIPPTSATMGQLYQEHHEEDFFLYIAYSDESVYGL

Binder | median log2 fold change
B1 | -0.131
B2 | -0.0661
B3 | 0.126
B4 | 0.117
B5 | -0.00202
B6 | 0.189
B7 | 0.00756
B8 | -0.566
B9 | -0.398
B10 | -0.159
B11 | -0.0683
B12 | -0.0904
B13 | 0.133
B14 | 0.266
B15 | 0.0213
B16 | -0.289
B17 | -0.318
B18 | -0.101
B19 | 0.18
